# Results published in the supplement of paper PMC8728848.
# The list shows a part of the results.
# B1: CC1G-10077 (Coprinopsis cinerea), A8NDT7 (protein)
# chain: MALNEGVYWIRNSRFTNKVLDLDAANVAKGTSILDFNEHGTFNENHNQLWIVERFQSRDTYLIRSVHSNLVLDLSQGLSANGTPILCWTQHGGTNQQWRIEWVKDDNKTPLYRIVSVATGTAISHNEDDSSAYTVAWSVDDGPKQLWSFDPFVTPLLYRLRVKSTSRVLDLAAASADNGTLALAWEQHTAITKRNQLWWLPYRSGAEEYTIQCLETSTVADLSGGNSGNGTPIYGWQSHGGRNQQWKFEPTSDSGDYYHIKNVEGGSVMDAYMNDSQKRVGGWSNNGGDNQKWLLDPLPSPGPGWVLIQNGGTGKFLCSTPSGDIGTADGPETVYDYSVQWRFIQREYTGVYHVVNRATGAYLRQIGTSMPSIGLAEENDDELKDWWMLETYDNSEIGLASIISRWTGNVLDHYGGVSVQALDNNTENSYRSWAIIPARDWLTSFSLVNGQGGLCLAAQYAREETRLSTTANVNDFHAQWVFRKPSGSSGYTIQNKYNNHYVGGTSARWELVVCCNKYFGIRNTSTQKYLAIEDGQVTFQDQDMTDRKQCWELCSGRATDTSGNDYDLIYMDDDLLEVMIPWVGDKQGDLKHYIEKRATKKPPKDKGGWQLPAAGLIKKPKFNDIRQLLQELIEQWEWDVVNEEREQIQTLVSIDEAEARRLLGRRPHPDIVAAYQRSRSSTLFRIDRQGYFNIAGDRYVNIQGQYGDDSYFHIALPVGVRFGREQIRRFLRDSLDRSTSVTITPTTCKPPSGGPDYNRDPDSDGDNSWIKWTIAVVGTSAIKHSEL
# Assays:
# Assay in all cases: glycan array binding signal (z-score within array); higher = stronger binding
# Conditions in all cases: glycan notation: IUPAC condensed, linker removed
# [1] = biological target: Gal(b1-4)GlcNAc(b1-3)Gal(b1-4)GlcNAc(b1-2)Man(a1-3)[Gal(b1-4)GlcNAc(b1-3)Gal(b1-4)GlcNAc(b1-2)Man(a1-6)]Man(b1-4)GlcNAc(b1-4)[Fuc(a1-6)]GlcNAc
# In short: (§1)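 Columns mapping to the same glycan were averaged after glycan names were converted to IUPAC-condensed notation. The data come from 3228 arrays in the Consortium for Functional Glycomics database, limited to those with an available protein sequence. Binding is reported as a within-array Z-score averaged across arrays of one protein sequence and across linkers.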
# [2] = biological target: Gal(b1-4)GlcNAc(b1-3)Gal(b1-4)GlcNAc(b1-2)[Gal(b1-4)GlcNAc(b1-3)Gal(b1-4)GlcNAc(b1-6)]Man(a1-6)[Gal(b1-4)GlcNAc(b1-3)Gal(b1-4)GlcNAc(b1-2)Man(a1-3)]Man(b1-4)GlcNAc(b1-4)GlcNAc
# In short: as §1
# [3] = biological target: Gal(b1-4)GlcNAc(b1-3)Gal(b1-4)GlcNAc(b1-2)[Gal(b1-4)GlcNAc(b1-3)Gal(b1-4)GlcNAc(b1-6)]Man(a1-6)[Gal(b1-4)GlcNAc(b1-3)Gal(b1-4)GlcNAc(b1-2)Man(a1-3)]Man(b1-4)GlcNAc(b1-4)[Fuc(a1-6)]GlcNAc
# In short: as §1
# [4] = biological target: Gal(b1-4)GlcNAc(b1-3)Gal(b1-4)GlcNAc(b1-3)Gal(b1-4)GlcNAc
# In short: as §1
# [5] = biological target: Gal(b1-4)GlcNAc(b1-3)Gal(b1-4)GlcNAc(b1-3)Gal(b1-4)GlcNAc(b1-2)Man(a1-3)[Gal(b1-4)GlcNAc(b1-3)Gal(b1-4)GlcNAc(b1-3)Gal(b1-4)GlcNAc(b1-2)Man(a1-6)]Man(b1-4)GlcNAc(b1-4)GlcNAc
# In short: as §1
# [6] = biological target: Gal(b1-4)GlcNAc(b1-3)Gal(b1-4)GlcNAc(b1-3)Gal(b1-4)GlcNAc(b1-2)Man(a1-3)[Gal(b1-4)GlcNAc(b1-3)Gal(b1-4)GlcNAc(b1-3)Gal(b1-4)GlcNAc(b1-2)Man(a1-6)]Man(b1-4)GlcNAc(b1-4)[Fuc(a1-6)]GlcNAc
# In short: as §1
# [7] = biological target: Gal(b1-4)GlcNAc(b1-3)Gal(b1-4)GlcNAc(b1-3)Gal(b1-4)GlcNAc(b1-2)[Gal(b1-4)GlcNAc(b1-3)Gal(b1-4)GlcNAc(b1-3)Gal(b1-4)GlcNAc(b1-6)]Man(a1-6)[Gal(b1-4)GlcNAc(b1-3)Gal(b1-4)GlcNAc(b1-3)Gal(b1-4)GlcNAc(b1-2)Man(a1-3)]Man(b1-4)GlcNAc(b1-4)[Fuc(a1-6)]GlcNAc
# In short: as §1
# [8] = biological target: Gal(b1-4)GlcNAc(b1-3)Gal(b1-4)GlcNAc(b1-3)Gal(b1-4)GlcNAc(b1-3)Gal(b1-4)GlcNAc(b1-2)Man(a1-3)[Gal(b1-4)GlcNAc(b1-3)Gal(b1-4)GlcNAc(b1-3)Gal(b1-4)GlcNAc(b1-3)Gal(b1-4)GlcNAc(b1-2)Man(a1-6)]Man(b1-4)GlcNAc(b1-4)GlcNAc
# In short: as §1
# [9] = biological target: Gal(b1-4)GlcNAc(b1-3)Gal(b1-4)GlcNAc(b1-3)Gal(b1-4)GlcNAc(b1-3)Gal(b1-4)GlcNAc(b1-2)Man(a1-3)[Gal(b1-4)GlcNAc(b1-3)Gal(b1-4)GlcNAc(b1-3)Gal(b1-4)GlcNAc(b1-3)Gal(b1-4)GlcNAc(b1-2)Man(a1-6)]Man(b1-4)GlcNAc(b1-4)[Fuc(a1-6)]GlcNAc
# In short: as §1
# [10] = biological target: Gal(b1-4)GlcNAc(b1-3)Gal(b1-4)GlcNAc(b1-3)Gal(b1-4)GlcNAc(b1-3)Gal(b1-4)GlcNAc(b1-2)[Gal(b1-4)GlcNAc(b1-3)Gal(b1-4)GlcNAc(b1-3)Gal(b1-4)GlcNAc(b1-3)Gal(b1-4)GlcNAc(b1-6)]Man(a1-6)[Gal(b1-4)GlcNAc(b1-3)Gal(b1-4)GlcNAc(b1-3)Gal(b1-4)GlcNAc(b1-3)Gal(b1-4)GlcNAc(b1-2)Man(a1-3)]Man(b1-4)GlcNAc(b1-4)[Fuc(a1-6)]GlcNAc
# In short: as §1
# [11] = biological target: Gal(b1-4)GlcNAc(b1-3)Gal(b1-4)GlcNAc(b1-3)Gal(b1-4)GlcNAc(b1-3)Gal(b1-4)GlcNAc(b1-3)Gal(b1-4)GlcNAc(b1-2)Man(a1-3)[Gal(b1-4)GlcNAc(b1-3)Gal(b1-4)GlcNAc(b1-3)Gal(b1-4)GlcNAc(b1-3)Gal(b1-4)GlcNAc(b1-3)Gal(b1-4)GlcNAc(b1-2)Man(a1-6)]Man(b1-4)GlcNAc(b1-4)GlcNAc
# In short: as §1
# [12] = biological target: Gal(b1-4)GlcNAc(b1-3)Gal(b1-4)GlcNAc(b1-3)Gal(b1-4)GlcNAc(b1-3)Gal(b1-4)GlcNAc(b1-3)Gal(b1-4)GlcNAc(b1-2)Man(a1-3)[Gal(b1-4)GlcNAc(b1-3)Gal(b1-4)GlcNAc(b1-3)Gal(b1-4)GlcNAc(b1-3)Gal(b1-4)GlcNAc(b1-3)Gal(b1-4)GlcNAc(b1-2)Man(a1-6)]Man(b1-4)GlcNAc(b1-4)[Fuc(a1-6)]GlcNAc
# In short: as §1
# [13] = biological target: Gal(b1-4)GlcNAc(b1-3)Gal(b1-4)GlcNAc(b1-3)Gal(b1-4)GlcNAc(b1-3)Gal(b1-4)GlcNAc(b1-3)Gal(b1-4)GlcNAc(b1-2)[Gal(b1-4)GlcNAc(b1-3)Gal(b1-4)GlcNAc(b1-3)Gal(b1-4)GlcNAc(b1-3)Gal(b1-4)GlcNAc(b1-3)Gal(b1-4)GlcNAc(b1-6)]Man(a1-6)[Gal(b1-4)GlcNAc(b1-3)Gal(b1-4)GlcNAc(b1-3)Gal(b1-4)GlcNAc(b1-3)Gal(b1-4)GlcNAc(b1-3)Gal(b1-4)GlcNAc(b1-2)Man(a1-3)]Man(b1-4)GlcNAc(b1-4)[Fuc(a1-6)]GlcNAc
# In short: as §1
# [14] = biological target: Gal(b1-4)GlcNAc(b1-3)Gal(b1-4)GlcNAc(b1-3)Gal(b1-4)GlcNAc(b1-3)Gal(b1-4)GlcNAc(b1-3)Gal(b1-4)GlcNAc(b1-3)Gal(b1-4)GlcNAc(b1-2)Man(a1-3)[Gal(b1-4)GlcNAc(b1-3)Gal(b1-4)GlcNAc(b1-3)Gal(b1-4)GlcNAc(b1-3)Gal(b1-4)GlcNAc(b1-3)Gal(b1-4)GlcNAc(b1-3)Gal(b1-4)GlcNAc(b1-2)Man(a1-6)]Man(b1-4)GlcNAc(b1-4)GlcNAc
# In short: as §1
# [15] = biological target: Gal(b1-4)GlcNAc(b1-3)Gal(b1-4)GlcNAc(b1-3)GalNAc
# In short: as §1
binder,measurement,setting,value
B1,glycan array binding signal (z-score),[1],2.68
same,glycan array binding signal (z-score),[2],1.49
same,glycan array binding signal (z-score),[3],2.43
same,glycan array binding signal (z-score),[4],0.893
same,glycan array binding signal (z-score),[5],2.19
same,glycan array binding signal (z-score),[6],3.5
same,glycan array binding signal (z-score),[7],3.22
same,glycan array binding signal (z-score),[8],2.97
same,glycan array binding signal (z-score),[9],3.19
same,glycan array binding signal (z-score),[10],2.98
same,glycan array binding signal (z-score),[11],3.72
same,glycan array binding signal (z-score),[12],3.04
same,glycan array binding signal (z-score),[13],3.25
same,glycan array binding signal (z-score),[14],1.06
same,glycan array binding signal (z-score),[15],0.656
